The list shows a part of the results. Single values are uncertain, as repeats are few or missing.
Each compound was assayed on SARS-CoV-2 nsp3 SARS-unique domain core (SUD-core, nsp3 residues 413-676) (assay: apparent dissociation constant Kd (single-concentration BLI fit); higher = weaker binding). Settings: 100 µM; 25 °C.

Row | SMILES | apparent dissociation constant Kd [µM]
1 | CN1CCC(CNc2ccc3ncc(-c4cccc(OC(F)(F)F)c4)n3n2)CC1 | 32.8
2 | O=C(Nc1cccc(C(F)(F)F)c1)c1cccc2cc(Oc3cc(CO)ncn3)ccc12 | 17400
3 | O=c1[nH]ccc2nc(-c3ccc(CN4CCC(c5nc(-c6ccccn6)n[nH]5)CC4)cc3)c(-c3ccccc3)cc12 | 22.1
4 | NC(=O)c1ccccc1Nc1ccnc(Nc2cccc(O)c2)n1 | 1990
5 | O=C(O)c1cccc(CN2C(=O)/C(=C(\c3ccccc3)c3ccc(Cl)cc3)c3ccccc32)c1 | 6660
6 | CC(CCc1ccccn1)(CCc1ccccn1)C(=O)c1ccccc1 | 327
7 | COc1ccc(C(OC[C@H]2O[C@@H](n3cnc4c(=O)[nH]c(NC(=O)C(C)C)nc43)C[C@@H]2O)(c2ccccc2)c2ccc(OC)cc2)cc1 | 73.2
8 | NC(=O)c1cnc(N[C@@H]2CCCC[C@@H]2N)nc1Nc1cccc(-n2nccn2)c1 | 1300
9 | O=S(=O)(NCCNC/C=C/c1ccc(Br)cc1)c1cccc2cnccc12 | 293
10 | COc1ccc(C(OC[C@H]2O[C@@H](n3cnc4c(=O)[nH]cnc43)C[C@@H]2O)(c2ccccc2)c2ccc(OC)cc2)cc1 | 21.4
11 | Cn1cc(C2=C(c3cccc(N)c3)C(=O)NC2=O)c2ccccc21 | 3180
12 | O=C(NCCO)c1cccc(-c2cc(Nc3ccc(OC(F)(F)F)cc3)ncn2)c1 | 3610
13 | COCCOCCc1c(C)c2cc(OC)c(O)c(C=O)c2oc1=O | 2260
14 | CCN(CC)CCC(=O)N1N=C(c2c(-c3ccccc3)c3cc(Br)ccc3[nH]c2=O)CC1c1ccc(Br)cc1 (centres undefined) | 8190
15 | C[C@H](Nc1ncnc2nc[nH]c12)c1nc2ccc(F)cc2c(=O)n1-c1ccccc1 | 1650
16 | CC(C)NC(=O)C1CCC(n2c(NC(=O)c3ccc(F)cc3)nc3ccc(CN4CCC(C(C)(C)O)CC4)cc32)CC1 (centres undefined) | 6.65
17 | Cc1nn(CC(F)(F)F)cc1Nc1ncc(Br)c(NCc2ccc(S(N)(=O)=O)cc2)n1 | 799
18 | Cc1ccc(-c2csc3ncnc(SCCC(=O)O)c23)cc1 | 99.4
19 | Cc1ccc(C(=O)Nc2ccc(CN3CCN(C)CC3)c(C(F)(F)F)c2)cc1C#Cc1cnc2[nH]ncc2c1 | 92.1
20 | C[C@@H](Oc1cc(-c2cnn(C3CCNCC3)c2)cnc1N)c1c(Cl)ccc(F)c1Cl | 2130

Row | SMILES | apparent dissociation constant Kd [µM]
21 | COc1ccc2c(Nc3cc(NC(=O)c4cccc(C(C)(C)C#N)c4)ccc3C)ncnc2c1 | 772
22 | CCCCCCCC/C=C/CCCCCCCC(=O)OC[C@H]1O[C@@H](n2ccc(N)nc2=O)[C@@H](O)[C@@H]1O | 121
23 | C=CCc1ccc(O)c(-c2ccc(O)c(CC=C)c2)c1 | 2070
24 | CNc1nc(N)nc2c1ncn2[C@@H]1O[C@H](CO[P@@](=O)(N[C@@H](C)C(=O)OC(C)C)Oc2ccccc2)[C@@H](O)[C@@]1(C)F | 18700
25 | NC(=O)c1ncn([C@@H]2O[C@H](CO)[C@@H](O)[C@H]2O)c1O | 168
26 | Cc1cc2cc(Oc3ccnc(Nc4cccc(CS(=O)(=O)NCCN(C)C)c4)n3)ccc2[nH]1 | 221
27 | c1cc(-c2cnn3cc(-c4ccc(OCCN5CCCCC5)cc4)cnc23)ccn1 | 8.94
28 | COc1ccc2cc1Oc1ccc(cc1)C[C@H]1c3cc(c(OC)cc3CCN1C)Oc1c(O)c(OC)cc3c1[C@H](C2)N(C)CC3 | 90.7
29 | N#Cc1ccnc(Nc2cc(C3CCN(C4COC4)CC3)cc(N3CCC(F)(F)C3)n2)c1 | 3320
30 | COc1ccc(C(OC[C@H]2O[C@@H](n3cc(C)c(=O)[nH]c3=O)C[C@@H]2OP(OCCC#N)N(C(C)C)C(C)C)(c2ccccc2)c2ccc(OC)cc2)cc1 (some centres undefined) | 1800
31 | Cc1ccc(C(=O)Nc2cccc(C(F)(F)F)c2)cc1-c1ccc2nc(NCCN3CCOCC3)ncc2c1 | 6280
32 | NC(=O)c1cccc(-c2cc(Nc3ccc(OC(F)(F)F)cc3)ncn2)c1 | 1570
33 | COc1ccc(C(OC[C@H]2O[C@@H](n3cnc4c(=O)[nH]c(NC(=O)C(C)C)nc43)[C@H](F)[C@@H]2OP(OCCC#N)N(C(C)C)C(C)C)(c2ccccc2)c2ccc(OC)cc2)cc1 (some centres undefined) | 9610
34 | Nc1ccc(CCNc2ncnc3c2ncn3[C@@H]2O[C@H](CO)[C@@H](O)[C@H]2O)cc1 | 56.3
35 | CN1CCN(c2ccc3nc(-c4c(N)c5c(F)cccc5[nH]c4=O)[nH]c3c2)CC1 | 40.5
36 | C=CC(=O)Nc1cccc(C)c1Nc1ncc2cc(-c3c(Cl)c(OC)cc(OC)c3Cl)ccc2n1 | 1230
37 | O=C(NC1CCNCC1)c1[nH]ncc1NC(=O)c1c(Cl)cccc1Cl | 214
38 | CCN(C)C(=O)c1ccc2c(C(=Nc3ccc(CN4CCCCC4)cc3)c3ccccc3)c(O)[nH]c2c1 | 1140
39 | CCc1c(C(=O)NNC(=O)[C@@H](O)c2cc(F)cc(F)c2)ccc(O)c1C | 956
